# Among all 340,000 compounds or so, about 12,000 (3.5%) were called active. The shares of active, inactive and inconclusive entries below differ from those in the screen. Calls come from the whole dose curve; as a rule, active = well fitted inhibition curve with a large enough effect; inconclusive = small, poorly fitted or top-dose-only effect, or another doubt; inactive = no such curve, though single readings can be large or run the other way. No potency is given beside an inconclusive call; the fits are too rough.
# Experiment: qHTS Assay for Inhibitors of Hepatitis C Virus (HCV)
# Conditions: Huh7.5.1 HCVcc-Cre (HCVcc is cell-culture hepatitis C virus) infection, luciferase reporter, 44 h; series mostly up to 41.8 µM
# How it was run: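 Luciferase read-out (15 sec integration) after a 15 min room-temperature substrate step quantifies HCVcc-Cre infection. Cells, 1,000 per well, had compound added 4 h post-plating, then virus at ~0.5 moi, and were cultured 44 h.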
# Potency is the fitted concentration of half-maximal effect; tags give direction and shape of the fitted curve.
row,SMILES,Potency
1,Oc1c(I)cc(Cl)c2cccnc12,"inconclusive [inhibitor, single point]"
2,CCOC(=O)c1c(NC(=O)COC(=O)CNC(=O)c2ccco2)sc(C(C)=O)c1C,"inconclusive [inhibitor, full curve, poor fit]"
3,NC(=S)NN=C1c2ccccc2-c2c(F)c(F)c(F)c(F)c21,"inconclusive [inhibitor, single point]"
4,CCOC(=O)C1=C(Cn2ccc(C(F)(F)F)n2)NC(=O)NC1c1ccc2c(c1)OCO2 (stereo not given),"inconclusive [inhibitor, single point]"
5,COc1ccc2c(=O)cc(-c3ccncc3)oc2c1OC,active: 11.2 µM
6,CCCN1C(=O)/C(=C/c2ccc(N3CCCC3)c(C)c2)NC1=S,"inconclusive [inhibitor, partial curve]"
7,CC(=O)NCCOc1ccc2oc3ccccc3c2c1,"inconclusive [inhibitor, partial curve, poor fit]"
8,Cc1cc(NC(=O)C(C)SCC(=O)N(Cc2ccccc2)c2ccccc2)no1 (stereo not given),inactive
9,CCCn1c(O)c(N=NC(=O)c2ccco2)c2ccccc21,"inconclusive [inhibitor, single point]"
10,COc1cccc(C=NNC(=O)c2ccncc2)c1O,"inconclusive [inhibitor, single point]"
11,CCOc1ccc(NC(=O)CN(C)C(=O)c2ccccc2CCc2ccccc2)cc1OCC,"inconclusive [inhibitor, single point]"
12,CSc1nccc(-c2nn(-c3ccc(C)cc3)ccc2=O)n1,"inconclusive [inhibitor, single point]"
13,CCOc1cc(/C=C(\C#N)c2nc(-c3cccs3)c(NC(C)=O)s2)ccc1O,active: 0.891 µM
14,CC1CC(C(F)F)n2nc(C(=O)O)cc2N1 (stereo not given),inactive
15,CCCC(C)C(=O)NCc1ccccc1OC (stereo not given),inactive
16,Cc1cc(NC(=O)CSc2ccc3nnc(-c4ccc(F)cc4)n3n2)no1,"inconclusive [inhibitor, partial curve]"
17,Cc1ccc(NC(=O)C2CCCN2C(=O)OCc2ccccc2)cc1C (stereo not given),inactive
18,C=C(C)COc1ccc(-c2[nH]ncc2-c2ccc(Br)cc2)c(O)c1,"inconclusive [inhibitor, single point]"
19,CC1(C)CC(=O)C(C=NCCCn2ccnc2)=C(O)C1,inactive
20,CC(C)c1ccc(-c2csc3ncnc(N4CCN(C)CC4)c23)cc1,"inconclusive [inhibitor, single point]"
21,CCC(C)NS(=O)(=O)c1cccs1 (stereo not given),"inconclusive [inhibitor, single point]"
22,Nc1ccc(Nc2ccccc2)cc1,inactive
23,COc1cc2nc(NC(=O)c3ccc(F)cc3Cl)sc(=O)c2cc1OC,"inconclusive [inhibitor, partial curve]"

row,SMILES,Potency
1,O=C(COC(=O)c1ccc(Br)cc1)NC(=O)NCc1ccccc1,inactive
2,COCCNc1nc(N)c([N+](=O)[O-])c(NCC2CCCO2)n1 (stereo not given),inactive
3,Cc1ccc(SC[C@H](Cc2ccccc2)N2CCN(CCc3ccccc3)CCC2=O)cc1,"inconclusive [inhibitor, single point]"
4,COc1ccc(N2CCCC2)c(NC(=O)COc2ccccc2Cl)c1,"inconclusive [inhibitor, single point]"
5,NS(=O)(=O)c1ccc(N2CCOCC2)c(C(=O)NCc2ccc3c(c2)OCO3)c1,"inconclusive [inhibitor, single point]"
6,COc1cc(NC(=O)c2cccs2)ccc1NC(=O)Cc1ccccc1,"inconclusive [inhibitor, partial curve, poor fit]"
7,Cc1ccc(Nc2nc(NCC3CCCO3)nc(N)c2[N+](=O)[O-])cc1C (stereo not given),"inconclusive [inhibitor, partial curve, poor fit]"
8,CCOc1ccc(NC(=O)C2CCCN(S(=O)(=O)c3c(C)n[nH]c3C)C2)cc1 (stereo not given),"inconclusive [inhibitor, single point]"
9,CCC(=O)Nc1cccc(-c2csc(-c3ccccc3)n2)c1,"inconclusive [inhibitor, partial curve, poor fit]"
10,COc1cc2c(cc1OC)C(C)N(C(=O)Cn1ncc3c1-c1ccccc1OC3)CC2 (stereo not given),"inconclusive [inhibitor, single point]"
11,Cc1ccccc1C(OCC(O)CN1CCCCC1CCO)c1ccccc1 (stereo not given),"inconclusive [inhibitor, single point]"
12,CCOc1ccc(C2C(C(=O)c3ccc(C)o3)=C(O)C(=O)N2Cc2cccnc2)cc1 (stereo not given),inactive
13,C=CCNC(=S)Nc1ccc(Br)cc1F,"inconclusive [inhibitor, single point]"
14,Cc1ccc(C(=O)CNc2ccccc2)cc1,inactive
15,CC(C)Cn1cnc2c1c(=O)n(C)c(=O)n2C,"inconclusive [inhibitor, full curve, poor fit]"
16,CCOc1ccccc1NC(=O)C1CCCN(S(=O)(=O)c2ccc3c(c2)C(C)(C)C(=O)N3C)C1 (stereo not given),"inconclusive [inhibitor, single point]"
17,Cc1ccc(S(=O)(=O)/N=C2\C=C(Nc3cccc(C(=O)O)c3)C(=O)c3ccccc32)c(C)c1,inactive
18,Cc1ccc2cc(C)c(NCCO)nc2c1,inactive
19,COc1ccc(-c2cc(-c3ccc(Br)cc3)nc3ncnn23)cc1OC,"inconclusive [inhibitor, full curve, poor fit]"
20,COc1ccccc1C(c1nnnn1CCc1ccccc1)N1CCN(c2ccccc2)CC1 (stereo not given),"inconclusive [inhibitor, partial curve]"
21,O=C(NCC(c1cccnc1)N1CCN(c2ccc(F)cc2)CC1)c1ccco1 (stereo not given),"inconclusive [inhibitor, single point]"
22,C=CCOC(=O)CC(NC(=O)c1ccccc1)c1ccccc1 (stereo not given),"inconclusive [inhibitor, partial curve, poor fit]"
